Experimental data published in the supplement of paper PMC4967469.
By IC50 is meant the dose at which the fit gives 50% viability; where the fit passes the top or lowest dose, that dose stands as a limit. AUC is the area under the same curve over the 256-fold range up to the top dose, as a fraction; the more sensitive the line, the further below 1.

compound: COc1ccc(C2=N[C@@H](c3ccc(Cl)cc3)[C@@H](c3ccc(Cl)cc3)N2C(=O)N2CCNC(=O)C2)c(OC(C)C)c1 [Nutlin-3a]; test: Viability of human cancer cell lines after 72 h of drug (GDSC screen)
Description: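 Human cancer cell lines in 384-well plates, medium with 10% serum, drug for 72 h over a 256-fold dose range (nine 2-fold or five 4-fold steps up to the top dose). Adherent lines were fixed and stained with the nucleic acid dye Syto60, suspension lines read with resazurin; signal relative to control wells, capped at 0 and 100%. One two-parameter sigmoid per drug and line, fitted in a mixed model over all curves with the slope shared within a line.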

First: MFM-223 (breast, adherent, top dose 8 µM)
Second: MG-63 (osteosarcoma, adherent, top dose 8 µM)
The AUC of the first is higher: 0.989 for the first, 0.984 for the second.

First: MHH-CALL-2 (B-cell leukaemia, suspension, top dose 8 µM)
Second: MHH-ES-1 (Ewing sarcoma, adherent, top dose 8 µM)
The AUC of the first is higher: 0.987 for the first, 0.983 for the second.

Going from “MHH-NB-11 (neuroblastoma, adherent, top dose 8 µM)” to “MHH-PREB-1 (B-cell leukaemia, suspension, top dose 8 µM)”, the AUC rises from 0.787 to 0.97.

Compared with “MIA-PaCa-2 (pancreas, adherent, top dose 8 µM)”, MKN1 (stomach, adherent, top dose 4 µM) is higher in AUC: 0.981 for the first, 0.982 for the second.

First: MKN7 (stomach, adherent, top dose 8 µM)
Second: MKN28 (stomach, adherent, top dose 8 µM)
The AUC of the first is lower: 0.98 for the first, 0.983 for the second.

Going from “ML-2 (acute myeloid leukaemia, suspension, top dose 8 µM)” to “MLMA (hairy cell leukaemia, semi-adherent, top dose 8 µM)”, the AUC rises from 0.892 to 0.977.

Compared with “MM1S (myeloma, suspension, top dose 8 µM)”, “MMAC-SF (melanoma, adherent, top dose 4 µM)” is higher in AUC: 0.806 for the first, 0.921 for the second.

Compared with “MN-60 (B-cell leukaemia, suspension, top dose 8 µM)”, “MOG-G-CCM (glioma, adherent, top dose 8 µM)” is higher in AUC: 0.966 for the first, 0.982 for the second.

First: MOG-G-UVW (glioma, adherent, top dose 8 µM)
Second: MOLM-13 (acute myeloid leukaemia, suspension, top dose 8 µM)
The AUC of the first is higher: 0.933 for the first, 0.92 for the second.

First: MOLM-16 (acute myeloid leukaemia, suspension, top dose 8 µM)
Second: MOLP-8 (myeloma, suspension, top dose 8 µM)
The AUC of the first is higher: 0.968 for the first, 0.947 for the second.

Going from “MOLT-4 (lymphoblastic leukaemia, suspension, top dose 8 µM)” to “MOLT-13 (T-cell lymphoblastic leukaemia, suspension, top dose 8 µM)”, the AUC rises from 0.905 to 0.933.

Going from “MOLT-16 (T-cell lymphoblastic leukaemia, suspension, top dose 8 µM)” to “MONO-MAC-6 (acute myeloid leukaemia, suspension, top dose 8 µM)”, the AUC rises from 0.729 to 0.956.

First: MPP-89 (mesothelioma, adherent, top dose 8 µM)
Second: MRK-nu-1 (breast, suspension, top dose 8 µM)
The AUC of the first is higher: 0.98 for the first, 0.947 for the second.

Going from MS751 (cervix, adherent, top dose 8 µM) to “MSTO-211H (mesothelioma, adherent, top dose 8 µM)”, the AUC falls from 0.99 to 0.715.

Going from “MY-M12 (leukaemia, suspension, top dose 8 µM)” to “MZ1-PC (pancreas, adherent, top dose 8 µM)”, the AUC rises from 0.767 to 0.953.

Going from “MZ2-MEL (melanoma, adherent, top dose 8 µM)” to “MZ7-mel (melanoma, adherent, top dose 8 µM)”, the AUC rises from 0.682 to 0.955.

First: Mo-T (hairy cell leukaemia, suspension, top dose 8 µM)
Second: NAMALWA (Burkitt lymphoma, suspension, top dose 8 µM)
The AUC of the first is lower: 0.833 for the first, 0.984 for the second.

Going from “NB1 (neuroblastoma, semi-adherent, top dose 8 µM)” to “NB5 (neuroblastoma, adherent, top dose 8 µM)”, the AUC falls from 0.911 to 0.848.

Compared with “NB6 (neuroblastoma, adherent, top dose 8 µM)”, “NB7 (neuroblastoma, adherent, top dose 8 µM)” is higher in AUC: 0.966 for the first, 0.986 for the second.

First: NB10 (neuroblastoma, adherent, top dose 8 µM)
Second: NB12 (neuroblastoma, adherent, top dose 8 µM)
The AUC of the first is lower: 0.872 for the first, 0.891 for the second.

In the case of “NB13 (neuroblastoma, adherent, top dose 8 µM)”, the AUC is reported as 0.989.

“MFM-223 (breast, adherent, top dose 8 µM)” and “MG-63 (osteosarcoma, adherent, top dose 8 µM)” cannot be ordered by IC50: greater than 8 µM for the first, greater than 8 µM for the second.

“MHH-CALL-2 (B-cell leukaemia, suspension, top dose 8 µM)” and “MHH-ES-1 (Ewing sarcoma, adherent, top dose 8 µM)” cannot be ordered by IC50: greater than 8 µM for the first, greater than 8 µM for the second.

Going from “MHH-NB-11 (neuroblastoma, adherent, top dose 8 µM)” to “MHH-PREB-1 (B-cell leukaemia, suspension, top dose 8 µM)”, the IC50 rises from 3.86 µM to greater than 8 µM.

“MIA-PaCa-2 (pancreas, adherent, top dose 8 µM)” and MKN1 (stomach, adherent, top dose 4 µM) cannot be ordered by IC50: greater than 8 µM for the first, greater than 4 µM for the second.

MKN7 (stomach, adherent, top dose 8 µM) and “MKN28 (stomach, adherent, top dose 8 µM)” cannot be ordered by IC50: greater than 8 µM for the first, greater than 8 µM for the second.

First: ML-2 (acute myeloid leukaemia, suspension, top dose 8 µM)
Second: MLMA (hairy cell leukaemia, semi-adherent, top dose 8 µM)
The IC50 of the first is lower: 7.63 µM for the first, greater than 8 µM for the second.

First: MM1S (myeloma, suspension, top dose 8 µM)
Second: MMAC-SF (melanoma, adherent, top dose 4 µM)
The IC50 of the first is lower: 3.83 µM for the first, greater than 4 µM for the second.

“MN-60 (B-cell leukaemia, suspension, top dose 8 µM)” and “MOG-G-CCM (glioma, adherent, top dose 8 µM)” cannot be ordered by IC50: greater than 8 µM for the first, greater than 8 µM for the second.

“MOG-G-UVW (glioma, adherent, top dose 8 µM)” and “MOLM-13 (acute myeloid leukaemia, suspension, top dose 8 µM)” cannot be ordered by IC50: greater than 8 µM for the first, greater than 8 µM for the second.

“MOLM-16 (acute myeloid leukaemia, suspension, top dose 8 µM)” and “MOLP-8 (myeloma, suspension, top dose 8 µM)” cannot be ordered by IC50: greater than 8 µM for the first, greater than 8 µM for the second.

First: MOLT-4 (lymphoblastic leukaemia, suspension, top dose 8 µM)
Second: MOLT-13 (T-cell lymphoblastic leukaemia, suspension, top dose 8 µM)
The IC50 of the first is lower: 7.19 µM for the first, greater than 8 µM for the second.

First: MOLT-16 (T-cell lymphoblastic leukaemia, suspension, top dose 8 µM)
Second: MONO-MAC-6 (acute myeloid leukaemia, suspension, top dose 8 µM)
The IC50 of the first is lower: 1.9 µM for the first, greater than 8 µM for the second.

“MPP-89 (mesothelioma, adherent, top dose 8 µM)” and “MRK-nu-1 (breast, suspension, top dose 8 µM)” cannot be ordered by IC50: greater than 8 µM for the first, greater than 8 µM for the second.

Going from MS751 (cervix, adherent, top dose 8 µM) to “MSTO-211H (mesothelioma, adherent, top dose 8 µM)”, the IC50 falls from greater than 8 µM to 1.89 µM.

Going from “MY-M12 (leukaemia, suspension, top dose 8 µM)” to “MZ1-PC (pancreas, adherent, top dose 8 µM)”, the IC50 rises from 3.36 µM to greater than 8 µM.

First: MZ2-MEL (melanoma, adherent, top dose 8 µM)
Second: MZ7-mel (melanoma, adherent, top dose 8 µM)
The IC50 of the first is lower: 1.77 µM for the first, greater than 8 µM for the second.

Compared with “Mo-T (hairy cell leukaemia, suspension, top dose 8 µM)”, “NAMALWA (Burkitt lymphoma, suspension, top dose 8 µM)” is higher in IC50: 5.33 µM for the first, greater than 8 µM for the second.

First: NB1 (neuroblastoma, semi-adherent, top dose 8 µM)
Second: NB5 (neuroblastoma, adherent, top dose 8 µM)
The IC50 of the first is higher: greater than 8 µM for the first, 6.05 µM for the second.

“NB6 (neuroblastoma, adherent, top dose 8 µM)” and “NB7 (neuroblastoma, adherent, top dose 8 µM)” cannot be ordered by IC50: greater than 8 µM for the first, greater than 8 µM for the second.

Compared with “NB10 (neuroblastoma, adherent, top dose 8 µM)”, “NB12 (neuroblastoma, adherent, top dose 8 µM)” is higher in IC50: 7.27 µM for the first, greater than 8 µM for the second.

For “NB13 (neuroblastoma, adherent, top dose 8 µM)”, the IC50 was greater than 8 µM.
